± gives the uncertainty stated by the source. Shown are siRNA guide strands that differ only in the seed, positions 2 to 7.
Legend:
[1] = test system: 3LL; assay: cell viability relative to siNT1 control; higher = less toxic; details: concentration: 10 nM; 96 h; Mus musculus;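 note: Luminescence-based viability of cells reverse transfected in 384-well plates with lipid-complexed siRNAs built on a non-toxic 19mer backbone whose passenger strand carries 2′-O-methyl groups at positions 1 and 2, triplicates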
[2] = test system: M565; assay: cell viability relative to lipid-only control; HeyA8 human ovarian and H460 human lung cancer; M565 mouse liver and 3LL mouse lung cancer; siNT1 is a non-toxic control siRNA; higher = less toxic; details: concentration: 10 nM; 96 h; Mus musculus
[3] = test system: H460; assay: as above; details: concentration: 10 nM; 96 h; Homo sapiens
[4] = test system: HeyA8; assay: as above; details: concentration: 10 nM; 96 h; Homo sapiens
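Throughout, for cell viability relative to lipid-only control: reverse lipid transfection in 384-well plates, in triplicate, of duplexes on a non-toxic 19mer backbone with passenger strand 2′-O-methylated at positions 1 and 2, luminescence viability read-out.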

Row | Sequence | cell viability [1] [%] | cell viability [2] [%] | cell viability [3] [%] | cell viability [4] [%]
1 | UCCCAUGACAUGUAAACCAAA | 101 ± 23 | 58.6 ± 9 | 41.8 ± 7.7 | 86.6 ± 1.6
2 | UCGCUAAACAUGUAAACCAAA | 104 ± 13 | 86.4 ± 12 | 79.1 ± 17 | 78.2 ± 5.3
3 | UGGAGGCACAUGUAAACCAAA | 5.96 ± 1.3 | 5.31 ± 1.6 | 23.7 ± 2.8 | 3.53 ± 0.56
4 | UUCGCAAACAUGUAAACCAAA | 104 ± 8.4 | 101 ± 3.9 | 85.3 ± 24 | 89.5 ± 9.1
5 | UGCGUAUACAUGUAAACCAAA | 90 ± 9.3 | 88.1 ± 3.7 | 76 ± 11 | 74.4 ± 8.2
6 | UGGAUAGACAUGUAAACCAAA | 87.4 ± 14 | 24.5 ± 6.8 | 45.8 ± 5.3 | 56.8 ± 5.4
7 | UCGUACCACAUGUAAACCAAA | 57.5 ± 6.3 | 30.5 ± 0.81 | 22.9 ± 1.2 | 61.3 ± 1.8
8 | UAUCCCAACAUGUAAACCAAA | 71.5 ± 6.1 | 73.3 ± 8.9 | 38.8 ± 3.7 | 23.9 ± 3.6
9 | UACGGCGACAUGUAAACCAAA | 82.2 ± 1.9 | 64.3 ± 9.6 | 55.6 ± 5 | 70.9 ± 10
10 | UCUUGAUACAUGUAAACCAAA | 91.8 ± 15 | 64.4 ± 13 | 64.1 ± 3.3 | 80.5 ± 0.96
11 | UGGGCACACAUGUAAACCAAA | 25.3 ± 6.3 | 15.5 ± 5.2 | 30 ± 3.2 | 11.6 ± 2.3
12 | UGUCGUAACAUGUAAACCAAA | 88.6 ± 14 | 44.9 ± 7.8 | 70.1 ± 21 | 79.5 ± 5
13 | UCCUAUGACAUGUAAACCAAA | 89.5 ± 15 | 80.9 ± 12 | 73.2 ± 11 | 85.8 ± 2.3
14 | UCUUACGACAUGUAAACCAAA | 87.8 ± 9.3 | 75.4 ± 10 | 64.1 ± 5.6 | 81.9 ± 7.6
15 | UUGAGACACAUGUAAACCAAA | 34.3 ± 8.4 | 23.6 ± 5.4 | 33.5 ± 3.7 | 51.3 ± 1.7
16 | UUGCCUCACAUGUAAACCAAA | 28.4 ± 3.4 | 15.8 ± 3.5 | 56.3 ± 2.9 | 73.5 ± 4.1
17 | UCUGUUAACAUGUAAACCAAA | 97.3 ± 14 | 58.6 ± 10 | 54.9 ± 5.7 | 77.5 ± 0.79
18 | UGAGUACACAUGUAAACCAAA | 57.6 ± 4.4 | 48.7 ± 5.5 | 56.1 ± 9 | 29 ± 5.4
19 | UGGAGAGACAUGUAAACCAAA | 33.5 ± 1.2 | 17.2 ± 3.3 | 61.8 ± 7.2 | 21.3 ± 2.3
20 | UAAAUACACAUGUAAACCAAA | 58.8 ± 4.2 | 105 ± 8.8 | 88.6 ± 10 | 102 ± 11

Row | Sequence | cell viability [1] [%] | cell viability [2] [%] | cell viability [3] [%] | cell viability [4] [%]
21 | UUAUAUCACAUGUAAACCAAA | 18.1 ± 5.5 | 73.2 ± 7.8 | 74.9 ± 17 | 64.6 ± 3.9
22 | UGGUCGCACAUGUAAACCAAA | 73.6 ± 3.5 | 53.4 ± 5.7 | 21.58 ± 0.18 | 27 ± 1.4
23 | UUGCUUCACAUGUAAACCAAA | 66.1 ± 5.3 | 75 ± 12 | 79.6 ± 9.1 | 56.7 ± 2
24 | UUAAGGUACAUGUAAACCAAA | 51.1 ± 12 | 21.5 ± 4.2 | 36.5 ± 1.9 | 62.2 ± 2.9
25 | UUAAGUAACAUGUAAACCAAA | 97.4 ± 9.3 | 91.2 ± 11 | 88 ± 21 | 92.1 ± 6.7
26 | UGAGCAAACAUGUAAACCAAA | 70.5 ± 20 | 19.2 ± 4.2 | 68.6 ± 12 | 84.2 ± 4.1
27 | UGCUUAAACAUGUAAACCAAA | 83.4 ± 10 | 88 ± 1.7 | 71.9 ± 9.5 | 81.6 ± 6.3
28 | UUCCUGGACAUGUAAACCAAA | 15.5 ± 1.6 | 46.6 ± 7.4 | 49 ± 9.7 | 53.3 ± 14
29 | UCAGGGUACAUGUAAACCAAA | 32.5 ± 10 | 11.1 ± 2.9 | 28.7 ± 5.9 | 18.9 ± 0.22
30 | UGCUAGAACAUGUAAACCAAA | 89.4 ± 6.4 | 87.6 ± 2.5 | 66.2 ± 13 | 70.7 ± 6.9
31 | UCUUUUAACAUGUAAACCAAA | 91 ± 13 | 75.9 ± 12 | 80.5 ± 9.7 | 85.4 ± 11
32 | UUUAGGUACAUGUAAACCAAA | 89.4 ± 7.5 | 85.9 ± 7.6 | 71.6 ± 5.7 | 94.1 ± 8.6
33 | UCGCGGAACAUGUAAACCAAA | 93.2 ± 16 | 85.2 ± 8.6 | 60.7 ± 1.7 | 62.02 ± 0.55
34 | UGGAUGGACAUGUAAACCAAA | 74.2 ± 8.2 | 8.12 ± 1.6 | 23.6 ± 2.5 | 17 ± 0.7
35 | UGCGCAUACAUGUAAACCAAA | 78.1 ± 12 | 49.8 ± 0.93 | 87.5 ± 26 | 74.9 ± 6.7
36 | UAGCGGAACAUGUAAACCAAA | 81.1 ± 6.1 | 28.1 ± 1.4 | 65.5 ± 4.5 | 43.4 ± 7.8
37 | UUGUAAGACAUGUAAACCAAA | 74.7 ± 3 | 65.6 ± 12 | 48.9 ± 5.9 | 77.4 ± 1.5
38 | UCCAUCCACAUGUAAACCAAA | 21 ± 10 | 9 ± 2.8 | 27.3 ± 4.8 | 13.6 ± 1.2
39 | UUACAGAACAUGUAAACCAAA | 40.2 ± 6.1 | 49.6 ± 8.2 | 90.3 ± 8.3 | 87.3 ± 4.2
40 | UAUCCGCACAUGUAAACCAAA | 93.4 ± 8.8 | 72.3 ± 15 | 67.9 ± 5.3 | 64.7 ± 8.4

Row | Sequence | cell viability [1] [%] | cell viability [2] [%] | cell viability [3] [%] | cell viability [4] [%]
41 | UCCGUCAACAUGUAAACCAAA | 99.4 ± 29 | 44.1 ± 10 | 55 ± 10 | 84.1 ± 8
42 | UGACGCGACAUGUAAACCAAA | 86.1 ± 5.2 | 65.1 ± 13 | 71.1 ± 13 | 102 ± 10
43 | UAGAAGAACAUGUAAACCAAA | 83.5 ± 5.4 | 65.9 ± 5.8 | 96.3 ± 24 | 89 ± 6.9
44 | UAGAAGCACAUGUAAACCAAA | 9.75 ± 4.1 | 18.9 ± 2.8 | 47.5 ± 4 | 41.9 ± 1.1
45 | UUACCGGACAUGUAAACCAAA | 91.1 ± 14 | 74.1 ± 16 | 73.6 ± 14 | 89.9 ± 3.5
46 | UACAAUGACAUGUAAACCAAA | 92.2 ± 11 | 49.6 ± 13 | 83.2 ± 2.3 | 69.7 ± 1.5
47 | UAGCCAGACAUGUAAACCAAA | 41.4 ± 3.6 | 29.3 ± 2.7 | 52.6 ± 5 | 37.1 ± 2.7
48 | UCCCGAGACAUGUAAACCAAA | 110 ± 18 | 63.4 ± 12 | 79.7 ± 4.7 | 94.5 ± 1.1
49 | UCUACCUACAUGUAAACCAAA | 99.4 ± 16 | 69 ± 3.2 | 49.9 ± 3.4 | 70.8 ± 6.5
50 | UUUGUAAACAUGUAAACCAAA | 98.6 ± 15 | 89.7 ± 3.6 | 81.3 ± 4.9 | 98.9 ± 6.1
51 | UCUCUGAACAUGUAAACCAAA | 104 ± 13 | 61 ± 12 | 36.8 ± 2.1 | 82.2 ± 7.8
52 | UUCCCGAACAUGUAAACCAAA | 98 ± 21 | 88.1 ± 7.6 | 85.9 ± 8.2 | 100 ± 8.2
53 | UCUUAGGACAUGUAAACCAAA | 89.2 ± 13 | 60.6 ± 6.5 | 51.3 ± 1.5 | 80.1 ± 9.1
54 | UCUACUGACAUGUAAACCAAA | 95.7 ± 17 | 69.4 ± 13 | 73.5 ± 10 | 86.6 ± 4.8
55 | UAGUGUCACAUGUAAACCAAA | 21 ± 5.2 | 39.5 ± 2.9 | 55.9 ± 6.4 | 61.4 ± 4
56 | UAUCAGCACAUGUAAACCAAA | 32.9 ± 5.7 | 24.7 ± 3 | 36.8 ± 5.4 | 43.6 ± 3.2
57 | UCUAAGAACAUGUAAACCAAA | 94.2 ± 13 | 62.8 ± 8.8 | 68.2 ± 8.3 | 85 ± 7.8
58 | UUUUAAGACAUGUAAACCAAA | 99.7 ± 6 | 89 ± 5 | 66.7 ± 7.7 | 96.9 ± 6.4
59 | UUGGGCAACAUGUAAACCAAA | 49.4 ± 7.8 | 68.8 ± 11 | 60.8 ± 5.6 | 67.7 ± 5.5

Reference: the supplement of paper PMC6206098
